# Assay results taken from PubChem BioAssay (Tox21).
# Values joined by “and” are separate entries in the source; they are usually repeats but may differ in a detail not shown here. Equal entries are not always repeated. This list was built around the results that the source calls inconclusive (neither active nor inactive); the mix of calls is not that of the screen. For some assays here: Where the call is inconclusive, the potency comes from a doubtful curve fit. Active and inactive are the calls of the source. Unless noted, calls follow the shape of the dose curve; as a rule, active = well fitted curve in the direction sought with a large enough effect in the repeat runs; inconclusive = weak or mixed curves; inactive = no such curve, though single readings can be large; an effect the other way counts as inactive or inconclusive.
# Experiments:
# [1] = qHTS assay for small molecule agonists of the p53 signaling pathway (AID 651631; calls by dose curve; also: nearly all actives have a fitted effect of over 15% in size; also: potency is read from the fitted curve at half-maximal effect; as to activation: % is scaled to controls: 0 for no effect and ±100 for the full control effect); details: HCT-116 p53RE-bla reporter, beta-lactamase FRET ratio, 16 h; activation: at 73.3 µM (top of the series) unless noted
# Summary of the method: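 We treat p53RE-bla HCT-116 cells with compounds for 16 h at 37 °C, add LiveBLAzer B/G FRET substrate for 2 h at room temperature, and measure fluorescence intensity.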
# [2] = qHTS assay for small molecule disruptors of the mitochondrial membrane potential (AID 720635); details: HepG2 mitochondrial membrane potential, Mito-MPS dye ratio; ratio activity, negative = MMP loss: at 83.2 µM (top of the series) unless noted; also: potency is read from the fitted curve at half-maximal effect; as to ratio activity, negative = MMP loss: % is scaled to controls: 0 for no effect and ±100 for the full control effect
# Summary of the method: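 HepG2 cells (2,000/well) attached overnight at 37C, then took compound for 1 hr at 37C, 5% CO2. Mito-MPS dye was added for 30 min; fluorescence was read at 490/535 nm (monomers) and 540/590 nm (aggregates).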
# [3] = molecular target: Glucocorticoid receptor (Homo sapiens) (UniProt P04150); assay: qHTS assay to identify small molecule agonists of the glucocorticoid receptor (GR) signaling pathway (AID 720691; active = well fitted activation curve with a large enough effect in the signal ratio in the repeat runs, not every such curve was filed as active; inconclusive = weak or mixed curves, or effect the other way; inactive = no such curve, though single readings can be large or run the other way; the % refers to the signal ratio; also: % is scaled to controls: 0 for no effect and ±100 for the full control effect); details: GR-bla HeLa, beta-lactamase reporter ratio, 18 h; activation: at 62.4 µM (top of the series) unless noted
# Sequence of UniProt P04150 (P04150 whole entry, looked up): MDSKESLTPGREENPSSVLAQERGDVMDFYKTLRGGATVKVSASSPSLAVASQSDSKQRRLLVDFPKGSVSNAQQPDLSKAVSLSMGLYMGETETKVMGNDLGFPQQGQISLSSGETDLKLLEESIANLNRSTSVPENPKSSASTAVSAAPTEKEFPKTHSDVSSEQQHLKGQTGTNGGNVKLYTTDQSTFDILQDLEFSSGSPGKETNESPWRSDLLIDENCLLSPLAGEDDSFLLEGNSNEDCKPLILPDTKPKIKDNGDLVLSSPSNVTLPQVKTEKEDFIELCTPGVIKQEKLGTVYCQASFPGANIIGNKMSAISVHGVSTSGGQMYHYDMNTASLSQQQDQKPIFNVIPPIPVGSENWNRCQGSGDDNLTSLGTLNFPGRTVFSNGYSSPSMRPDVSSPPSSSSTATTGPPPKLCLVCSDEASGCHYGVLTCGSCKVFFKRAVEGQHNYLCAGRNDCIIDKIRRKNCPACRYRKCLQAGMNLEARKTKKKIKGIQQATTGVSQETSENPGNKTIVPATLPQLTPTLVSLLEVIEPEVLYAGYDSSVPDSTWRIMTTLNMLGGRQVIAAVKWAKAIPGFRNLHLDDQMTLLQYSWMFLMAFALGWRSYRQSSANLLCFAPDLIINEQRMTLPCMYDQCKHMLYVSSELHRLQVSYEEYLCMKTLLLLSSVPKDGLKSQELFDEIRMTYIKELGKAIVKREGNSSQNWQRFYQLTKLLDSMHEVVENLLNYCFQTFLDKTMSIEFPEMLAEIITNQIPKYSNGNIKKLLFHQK
# Summary of the method: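 HeLa GR-bla reporter line; cells pre-incubated 4 h, compound in DMSO 18 h at 37 C; LiveBLAzer B/G FRET substrate 2 h RT; fluorescence intensity read-out.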
# [4] = molecular target: Glucocorticoid receptor (Homo sapiens) (UniProt P04150); assay: qHTS assay to identify small molecule antagonists of the glucocorticoid receptor (GR) signaling pathway (AID 720692; active = well fitted inhibition curve with a large enough effect in the signal ratio in the repeat runs, not every such curve was filed as active; inconclusive = weak or mixed curves, or effect the other way; inactive = no such curve, though single readings can be large or run the other way; the % refers to the signal ratio; also: potency is read from the fitted curve at half-maximal effect; as to activity change, negative = inhibition: % is scaled to controls: 0 for no effect and ±100 for the full control effect); details: GR-bla HeLa, beta-lactamase FRET ratio, dexamethasone-stimulated, 18 h
# Summary of the method: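 Read-out: beta-lactamase FRET substrate fluorescence, 2 h at room temperature, in HeLa cells stably carrying a GRE-driven bla reporter. Compounds were co-incubated with 5 nM dexamethasone agonist (final) for 18 h at 37 C.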
# [5] = qHTS assay for identifying genotoxic compounds that show differential cytotoxicity against isogenic chicken DT40 cell lines with known DNA damage response pathways - Rev3 mutant cell line (AID 743014); details: chicken DT40 Rev3-/- viability, CellTiter-Glo, 40 h; activity, negative = cytotoxicity: at 68.4 µM (top of the series) unless noted; also: nearly all actives have a fitted effect of over 55% in size; also: potency is read from the fitted curve at half-maximal effect
# [6] = qHTS assay for identifying genotoxic compounds that show differential cytotoxicity against isogenic chicken DT40 cell lines with known DNA damage response pathways - Rad54/Ku70 mutant cell line (AID 743015); details: DT40 Rad54/Ku70 mutant viability, CellTiter-Glo, 40 h; activity change, negative = cytotoxicity: at 66.8 µM (top of the series) unless noted; also: potency is read from the fitted curve at half-maximal effect; nearly all actives have a fitted effect of over 60% in size
# [7] = qHTS assay to test for compound auto fluorescence at 460 nm (blue) in HEK293 cells (AID 720678); also: potency is read from the fitted curve at half-maximal effect
# Summary of the method: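 Auto fluorescence in the blue band was quantified as triamterene equivalency. HEK293 cells were seeded at 2,000/well, dosed after a 4-5 hr attachment, and kept overnight at 37C before the 405/460 nm reading.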
# [8] = qHTS assay to test for compound auto fluorescence at 535 nm (green) in HEK293 cells (AID 720680); details: green autofluorescence 485/535 nm; also: potency is read from the fitted curve at half-maximal effect
# [9] = qHTS assay to test for compound auto fluorescence at 460 nm (blue) in HEK293 cell free culture (AID 720681); also: potency is read from the fitted curve at half-maximal effect
# Summary of the method: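 Test compounds were pinned into cell-free culture medium (DMEM with 10% FBS) and fluorescence was read directly at Ex/Em 405/460 nm. Signals were expressed as fluorescence equivalents of triamterene, with DMSO vehicle as control.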
# [10] = qHTS assay to test for compound auto fluorescence at 535 nm (green) in HEK293 cell free culture (AID 720682); details: cell-free medium, green autofluorescence 485/535 nm; also: potency is read from the fitted curve at half-maximal effect
# Summary of the method: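 Green-channel intensity (Ex/Em 485/535 nm) was recorded from compound-treated wells containing only DMEM with 10% FBS. Fluorescein provided the equivalency standard.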
# [11] = qHTS assay to test for compound auto fluorescence at 460 nm (blue) in HepG2 cell free culture (AID 720685); also: potency is read from the fitted curve at half-maximal effect
# Summary of the method: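 Cell-free plates of MEM plus 10% FBS received 23 nL compound or DMSO vehicle; blue-channel (405/460 nm) intensity scored against triamterene as reference fluorophore.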
# [12] = qHTS assay to test for compound auto fluorescence at 460 nm (blue) in HepG2 cells (AID 720687); also: potency is read from the fitted curve at half-maximal effect
# Summary of the method: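 Cells (2,000/well in MEM with 10% FBS) attached overnight at 37 C, then were exposed to compound or DMSO for 1 hr at 37 C, 5% CO2. Fluorescence read at Ex/Em 405/460 nm, expressed as triamterene-equivalent signal.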
# [13] = qHTS assay to identify small molecule antagonists of the glucocorticoid receptor (GR) signaling pathway - cell viability counter screen (AID 720693); details: GR-bla HeLa viability, CellTiter-Glo luminescence, 18 h, with 5 nM dexamethasone present; viability change, negative = cytotoxic: at 58.5 µM (top of the series) unless noted; also: nearly all actives have a fitted effect of over 55% in size; also: potency is read from the fitted curve at half-maximal effect
# [14] = qHTS assay for identifying genotoxic compounds that show differential cytotoxicity against isogenic chicken DT40 cell lines with known DNA damage response pathways - wild type cell line (AID 743012); details: DT40 wild type chicken cells viability, CellTiter-Glo, 40 h; activity change, negative = cytotoxicity: at 68.4 µM (top of the series) unless noted; also: potency is read from the fitted curve at half-maximal effect; nearly all actives have a fitted effect of over 60% in size
# Summary of the method: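 CellTiter-Glo luminescence readout of viability in wild type DT40 cells after 40 h compound exposure at 37 C/5% CO2; 300 cells/well; reagent incubated 30 min at room temperature before reading.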
# [15] = activity change, negative = inhibition: at 58.5 µM (top of the series) unless noted
# Tags tell the direction and shape of the fitted curve or compound fluorescence and quenching.
compound,measurement,setting,value
BrCC(Br)C1CCC(Br)C(Br)C1 (stereo not drawn),Potency,[1],"inconclusive: 76.6 µM [falling, partial curve, poor fit]"
same,Potency,[2],active: 27.2 µM
same,Potency,[3],inactive
same,"activity change, negative = inhibition",[4]; [15],inconclusive: 24.7%
O=NN(c1ccccc1)c1ccccc1,"activity change, negative = inhibition",[4]; at 58.5 µM (top of the series),inactive: 0.213%
CC(C)N(C(=O)COc1nnc(C(F)(F)F)s1)c1ccc(F)cc1,Potency,[1],"inconclusive: 61.1 µM [falling, partial curve]"
same,Potency,[4]; [15],active: 49 µM
Cn1cc(-c2ccccc2)c(=O)c(-c2cccc(C(F)(F)F)c2)c1,Potency,[1],inactive
same,Potency,[2],"inconclusive: 61.1 µM [activator, partial curve]"
same,Potency,[5],"inconclusive: 68.6 µM [cytotoxic, single point]"
same,Potency,[6],"inconclusive: 66.9 µM [cytotoxic, single point]"
Nc1nc(N)c(N)c(N)n1,Potency,[1],"inconclusive: 27.4 µM [falling, single point]"
same,Potency,[7],"inconclusive: 5.62 µM [fluorescent, full curve, poor fit]"
same,Potency,[8],"inconclusive: 35.5 µM [fluorescent, partial curve]"
same,Potency,[9],"inconclusive: 5.62 µM [rising, full curve, poor fit]"
same,Potency,[10],"inconclusive: 31.6 µM [fluorescent, partial curve]"
same,Potency,[11],"inconclusive: 5.62 µM [fluorescent, full curve, poor fit]"
same,Potency,[12],"inconclusive: 10 µM [fluorescent, single point]"
same,activation,[3],inconclusive: 1.02% [phenotype inactive] [at 79.2 µM]
same,"activity change, negative = inhibition",[4]; [15],inconclusive: -13.7% [at 78.9 µM]
Nc1n[nH]c(N)n1,activation,[1],inconclusive: 11.3% [at 95.1 µM]
same,"ratio activity, negative = MMP loss",[2],inconclusive: 0.829% [at 95.3 µM]
same,Potency,[6],inconclusive: 78.4 µM [cytotoxic]
CCCCCCCCCCCCN=C(N)N,Potency,[1],"inconclusive: 2.38 µM [falling, partial curve, poor fit]"
same,Potency,[4]; [15],"inconclusive: 0.957 µM [activator, single point]"
CCCCOC(=O)COC(=O)c1ccccc1C(=O)OCCCC,Potency,[1],inactive
same,Potency,[3],inactive
same,Potency,[13],inactive
O=C(Cl)OCCOCCOC(=O)Cl,Potency,[1],inactive
same,Potency,[4]; [15],inactive
same,Potency,[5],inactive
ClP(Cl)(Cl)(Cl)Cl,Potency,[1],inconclusive: 77.5 µM
same,"ratio activity, negative = MMP loss",[2],inconclusive: 0.0147% [at 95.3 µM]
same,Potency,[14],"inconclusive: 61.6 µM [cytotoxic, partial curve, poor fit]"
same,Potency,[5],"inconclusive: 69.1 µM [cytotoxic, single point]"
same,Potency,[6],"inconclusive: 69.1 µM [cytotoxic, single point]"
CCCCN(CC)c1c([N+](=O)[O-])cc(C(F)(F)F)cc1[N+](=O)[O-],Potency,[1],"inconclusive: 27.7 µM [rising, partial curve, poor fit] and inconclusive: 19.3 µM [rising, partial curve, poor fit]"
same,Potency,[2],"inconclusive: 27.7 µM [inhibitor, partial curve]"
same,Potency,[6],"inconclusive: 68.6 µM [cytotoxic, single point]"
C[C@]12CC[C@H]3[C@@H](CC[C@@]45O[C@@H]4C(O)=C(C#N)C[C@]35C)[C@@H]1CC[C@@H]2O,Potency,[1],"inconclusive: 29.8 µM [activator, partial curve, poor fit] and inconclusive: 61.1 µM [activator]"
same,Potency,[2],"inconclusive: 26.6 µM [activator] and inconclusive: 17.2 µM [activator, full curve]"
same,Potency,[6],inconclusive: 33.5 µM [cytotoxic]
O=C1NCN(c2ccccc2)C12CCN(CCCOc1ccc(F)cc1)CC2,Potency,[1],"inconclusive: 0.119 µM [activator, single point]"
same,"activity change, negative = inhibition",[4]; [15],inconclusive: -22.1%
same,Potency,[13],"inconclusive: 26.8 µM [cytotoxic, partial curve, poor fit]"
same,Potency,[14],active: 10.6 µM
CSC(=O)c1c(C(F)F)nc(C(F)(F)F)c(C(=O)SC)c1CC(C)C,activation,[1],inconclusive: 2.84%
same,Potency,[3],inactive
same,Potency,[4]; [15],"inconclusive: 54.6 µM [inhibitor, single point]"
same,Potency,[13],"inconclusive: 61.3 µM [cytotoxic, single point]"
Cc1cc2c3c(c1)C(c1ccccc1)=N[C@@H](NC(=O)c1ccncc1)C(=O)N3CC2,Potency,[1],"inconclusive: 54.5 µM [rising, partial curve]"
same,"ratio activity, negative = MMP loss",[2],inconclusive: 2.19%
same,Potency,[6],"inconclusive: 68.6 µM [cytotoxic, single point]"
